Structures are written as SMILES. Values joined by “and” are separate entries in the source; they are usually repeats but may differ in a detail not shown here. Identical values can stand only once.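 Tested at 5 concentrations; 48 h exposure; 96-well plates; endpoints linearly interpolated, else capped at highest concentration. GI50 = concentration required for 50% inhibition of growth. TGI: total growth inhibition.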 A value given as a limit tells only on which side of the number the result lay.

The subject of this test is NCI-H322M lung. Nature of the test: NCI anticancer screen, dose series, 48 h.
Turning to `COC1=C(OC)C(=O)C(C/C=C(\C)CC/C=C(\C)CC/C=C(\C)CC/C=C(\C)CC/C=C(\C)CC/C=C(\C)CC/C=C(\C)CC/C=C(\C)CC/C=C(\C)CCC=C(C)C)=C(C)C1=O`, the GI50 was more than 100 µM and the TGI was more than 100 µM.
Take `Cc1c(Nc2nccc3cc(CN4CC[C@@H](O)C4)cnc23)cccc1-c1cccc(-c2nc3cc(CN4CC[C@@H](C(=O)O)C4)cc(C#N)c3o2)c1C`: the GI50 is more than 100 µM and the TGI is more than 100 µM.
With `CC(CCc1nc2ccccc2s1)(c1ccc(O)cc1)c1ccc(O)cc1`, the TGI is 35.2 µM.
In the case of `C=CC1C(CC2OC(CO)C(O)C(O)C2O)OC=C2C(=O)OCCC21O` (stereo not given), the GI50 is 17.7 µM and the TGI is 88.7 µM.
On to `Cn1c2ccc(Cl)cc2c2ccc3c(c21)C(=O)C=CC3=O`, for which the TGI was more than 10 µM.
Same read-out and setting: under `CSc1nnc(SCc2nn3c(=O)cc(C)nc3s2)s1` stands more than 100 µM; under `Cc1cc2c(=O)c3ccc(Cl)cc3[nH]c2c(C(N)=O)c1C`, more than 100 µM.
Compound `Cc1nc2ccc(Br)cc2c(=O)n1-c1ccc(N)cc1` showed a TGI of more than 100 µM.
Still for that read-out and setting: under `Cc1nc2ccc(Cl)cc2c2c1CCO2` stands more than 100 µM.
Compound `O=C(O)CSC1=NNC2(C(=O)N1)c1ccccc1-c1ccccc12` came in with a TGI of more than 10 µM.
In the case of `COc1cc(/C=C/C(=O)CC(=O)/C=C/c2cc(OC)c(O)c(OC)c2)cc(OC)c1O`, the GI50 is 30.2 µM; the TGI is 25 µM and > 100 µM.
As for `CC(=O)CC(=O)N1CCSC1=S`, the TGI was more than 10 µM.
The same measure, in the same setting: the result for `O=C1C=CC(=O)c2c1ccc1c3ccccc3n(Cc3ccccc3)c21` reads more than 100 µM.
In the case of `O=c1cc(N2CCOCC2)n2c(ccc3ccccc32)n1`, the TGI was more than 100 µM.
The compound `O=CC(O)C(O)C(O)C(O)COC(=O)NCCCCC(=O)C(F)(F)C(F)(F)C(F)(F)C(F)(F)C(F)(F)C(F)(F)C(F)(F)F` (stereo not given) came in with a TGI of more than 100 µM.
In turn, `COc1c(OC)c(OC)c2c(=O)cc(-c3ccc(OC(C)C)cc3)oc2c1OC` gave a TGI of more than 52.4 µM.
For the compound `Cc1cc2nc3ccccc3n2c2ccccc12`, the TGI was more than 10 µM.
On the same count and under the same terms, the result for `CC(C)C1(NC(=O)C2CC3c4cccc5[nH]cc(c45)CC3N(C)C2)OC2(O)C3CCCN3C(=O)C(Cc3ccccc3)N2C1=O` (stereo not given) reads more than 100 µM.
On the same count and under the same terms, under `C=C(CN(CC)CC)C1(c2ccccc2)CC2(CCCC2)C(=O)O1` (stereo not given) stands more than 100 µM.
For `Cc1ccc(S(=O)(=O)n2cc([C@@]3(O)C[C@H](CSC#N)OC3=O)c3ccccc32)cc1`, the GI50 is more than 100 µM and the TGI was more than 100 µM.
With `O=Nc1c(-c2c(O)[nH]c3ccc(I)cc23)[nH]c2ccccc12`, the TGI was more than 31.4 µM.
On the same count and under the same terms, under `COc1ccc(-c2cc3ccccc3[nH]c2=O)cc1OC` stands more than 100 µM; under `Cc1cc(S(=O)(=O)Nc2nc3cscc3c(=O)n2N)c(S)cc1Cl`, more than 100 µM.
Still for that read-out and setting: the result for `CC(C)(C)c1cc(OCc2nnc3sc(Cc4ccccc4)nn23)c(Cl)cc1OCc1nnc2sc(Cc3ccccc3)nn12` reads more than 100 µM.
For the compound `CC(=O)c1c[nH]c2ccc(-c3ccnc(Nc4ccc(NC(=O)C5CCCC5)c(CN5CCOCC5)c4)n3)cc12`, the GI50 was 0.0352 µM and the TGI turned out to be 0.546 µM.
`O=c1[nH]cc(N=Cc2cc(Cl)ccc2O)c(=O)[nH]1` had a TGI of more than 100 µM.
For `O=C(O)COc1ccc(OCC(=O)O)cc1`, the GI50 is 3.64 µM and the TGI was found to be 24.1 µM.
The compound `COc1cc(C)cc(C(=O)/C=C/c2ccccc2)c1O` gave a TGI of 47.6 µM.
On the same count and under the same terms, under `O=C1Nc2cccc(Cl)c2/C1=C\c1c(-c2ccccc2)nc2n1CCS2` stands 57.8 µM; under `O=C1c2ccncc2C(=O)c2c(O)ccc(O)c21`, more than 100 µM.
Same read-out and setting: under `Cc1ccc2oc(=O)c3c(O)c4cccc(OC5OC(C)C6O[C@@H](c7ccccc7)OC6C5OC5OC(C)C(O)C(O)C5O)c4c4oc(=O)c1c2c34` (stereo not given in full) stands 2.3 µM.
In turn, `Cc1ccc(N2C(=O)/C(=C/c3ccc(N(CCC#N)CCC#N)cc3)N=C2COc2ccc(Cl)cc2Cl)cc1` returned a TGI of more than 100 µM.
For the compound `Cc1ccc(SSCC(O)C(O)CSSc2ccc(C)cc2)cc1` (stereo not given), the GI50 is 6.79 µM and 17.1 µM; the TGI was 24.3 µM and 47.3 µM.
In turn, `CC(C)N(C(=O)C12C3C4C5(C(=O)O)C(C1C35I)C42C(=O)O)C(C)C` (stereo not given) returned a TGI of more than 100 µM.
Regarding `O=S(=O)(/N=S(/Nc1ccccc1)C(F)(F)Cl)c1ccccc1` (stereo not given), the TGI was more than 100 µM.
On to `CC(C)[P+](c1ccccc1)(c1ccccc1)c1ccccc1`, for which the GI50 was 32.5 µM and the TGI is more than 100 µM.
In turn, `CC(/C=C/C(=O)c1sc(C(N)=S)nc1C)=C\c1ccccc1` showed a TGI of more than 100 µM.
The compound `NC(N)=NC(N)=Nc1ccc(C(=O)O)cc1` yielded a TGI of more than 100 µM.
Same read-out and setting: under `O=C(c1ccccc1)c1nnn(Cc2ccccc2Cn2nnc(C(=O)c3ccccc3)c2C(=O)c2ccccc2)c1C(=O)c1ccccc1` stands more than 100 µM.
On the same count and under the same terms, under `CCC1=C(C[C@H]2NCCc3cc(OC)c(OC)cc32)C[C@H]2c3cc(OC)c(OC)cc3CCN2C1` stands 0.481 µM.
The same measure, in the same setting: the result for `N/N=C(/N)SCCCCCCCCCCS/C(N)=N/N` reads more than 100 µM.
Regarding `COC(=O)c1c2c(cc3c1CC1(Cc4cc5c(c(C)c4C1)CCC5)C3)CCC2` (stereo not given), the TGI is more than 100 µM.
The same measure, in the same setting: under `COC(=O)CCC(=O)NC1=C(Nc2ccccc2)C(=O)c2ccccc2C1=O` stands 31.2 µM.
With `COc1cc2nc(N3CCC[C@H](NC4=CC(=O)c5ccccc5C4=O)C3)nc(N)c2cc1OC`, the GI50 is 1.9 µM and the TGI was determined as 3.83 µM.
For `COC(=O)/C(C#N)=C1\CCC(OC)N1C` (stereo not given), the TGI is more than 100 µM.
For `O=C1NC(=O)C(=Cc2cn(Cc3ccccc3)c3ccccc23)C(=O)N1`, the GI50 was 18.8 µM and the TGI was more than 66.7 µM.
As to `CC1CCCC(C#N)(NOC2=NCCN2)C1` (stereo not given), the GI50 was 32.4 µM and the TGI was more than 100 µM.
Turning to `CCC[CH2][Sn]([CH2]CCC)([CH2]CCC)/[C](=C/[Si](C)(C)c1ccccc1)c1ccc2c(c1)OCO2`, the GI50 was 28 µM and the TGI was more than 100 µM.
The compound `Cc1ccc(N2C(=O)C3CSCN3C2=O)cc1` (stereo not given) had a TGI of more than 100 µM.
`CCCCCCC(=O)C/C(CCC(=O)N(Cc1ccccc1)Cc1ccccc1)=N\NC(N)=O`: the TGI was more than 100 µM.
In the case of `CN1CCN(C(=O)c2ccc(NC(=O)Nc3ccc(-c4nc(N5CCOCC5)c5cccn5n4)cc3)cc2)CC1`, the GI50 is 0.0361 µM and the TGI amounted to 2.22 µM.
Compound `CCC(C)(O)c1cn(-c2ccc(Cl)cc2)nn1` (stereo not given) yielded a TGI of more than 100 µM.
`Cc1ccc(N=C/C=C(\Nc2ccc(C)cc2)c2ccc3ccccc3c2)cc1` returned a TGI of 7.55 µM.
The same measure, in the same setting: the result for `Oc1c(Cl)cc2cc1-c1cc(cc(Cl)c1O)CCc1c(cc(Cl)c(O)c1Cl)-c1cc(Cl)c(c(Cl)c1O)/C=C\2` reads 16 µM.
Same read-out and setting: the result for `COC(=O)C(=O)C(C(=O)C(=O)Nc1ccccc1[N+](=O)[O-])c1nc2ccc([N+](=O)[O-])cc2[nH]c1=O` (stereo not given) reads more than 100 µM.
The same measure, in the same setting: under `CCOC(=O)c1cc2c3c(c(C(C)=O)c(OC)c2[nH]1)N(C(=O)CC)CC3` stands 30.1 µM.
On to `Oc1cccc2c(Br)ccnc12`, for which the TGI is 32 µM.
The compound `CCOC(=O)c1c(N2CCCC2)[nH]c(=O)c(C(c2ccc(N(C)C)cc2)c2c(O)c(C(=O)OCC)c(N3CCCC3)[nH]c2=O)c1O` had a TGI of more than 100 µM.
The same measure, in the same setting: the result for `Oc1ccc(Cl)cc1-c1cc(-c2ccccc2)nc(=S)[nH]1` reads more than 100 µM.
The same measure, in the same setting: under `CC(c1ccccc1)n1cncc1C(=O)NN1CCN(C)CC1` (stereo not given) stands more than 10 µM.
`C1CSC[C@H]2COC[C@@H](CSCCS1)S2`: the TGI is more than 100 µM.

These data come from PubChem BioAssay (NCI).
